Key:
hGR [1] = target: T1, hGR (Homo sapiens, UniProt P04150); assay: cell-based; settings: IC50, HMLN-hGR cells, antagonistic activity, with 3 nM dexamethasone
T1 sequence (P04150 1-777): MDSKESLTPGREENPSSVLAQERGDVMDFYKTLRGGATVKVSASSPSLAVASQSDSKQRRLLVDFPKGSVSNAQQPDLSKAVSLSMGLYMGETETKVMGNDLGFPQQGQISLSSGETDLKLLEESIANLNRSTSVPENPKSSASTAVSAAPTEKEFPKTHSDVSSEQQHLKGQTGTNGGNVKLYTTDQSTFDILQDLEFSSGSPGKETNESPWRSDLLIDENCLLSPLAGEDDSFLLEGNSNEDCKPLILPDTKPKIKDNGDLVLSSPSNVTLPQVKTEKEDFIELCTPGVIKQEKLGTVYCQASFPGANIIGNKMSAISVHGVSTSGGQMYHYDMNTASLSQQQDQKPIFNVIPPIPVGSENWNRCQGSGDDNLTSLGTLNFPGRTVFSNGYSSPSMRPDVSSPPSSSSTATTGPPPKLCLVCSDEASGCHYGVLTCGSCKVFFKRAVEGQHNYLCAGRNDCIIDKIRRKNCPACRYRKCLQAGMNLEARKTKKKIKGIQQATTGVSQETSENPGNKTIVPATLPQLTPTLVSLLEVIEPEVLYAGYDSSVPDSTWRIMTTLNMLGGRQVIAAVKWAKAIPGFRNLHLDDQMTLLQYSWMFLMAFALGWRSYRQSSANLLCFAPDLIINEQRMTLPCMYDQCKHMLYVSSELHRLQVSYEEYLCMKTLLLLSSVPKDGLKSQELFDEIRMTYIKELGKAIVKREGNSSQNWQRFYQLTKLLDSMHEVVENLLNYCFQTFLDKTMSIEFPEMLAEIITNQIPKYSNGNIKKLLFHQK

hGR [2] = target: T1, hGR; assay: Whole-cell ligand competition assay with [3H]-dexamethasone, HMLN-hGR cells; assay type: binding; set-up: expressed in transfected cells; settings: HMLN-hGR whole cells, 1 nM [3H]-DEX as tracer, 3 h
Experimental: (§1) After 3 h, unbound material was aspirated, and cells were washed three times with cold PBS in order to remove additional unbound material. Then, 150 μl of lysis buffer (250 mM Tris phosphate pH 7.8, 0.1% triton X-100) was added and plates were shaked for 5 min. 50 μl of the total cell lysate was mixed with of 50 μl of LSC-cocktail (Emulsifier-Safe, Perkin Elmer) and [3H] bound radioactivity was liquid scintillation counted (MicroBeta trilux, Perkin Elmer). Protein concentration of 50 μl of the total cell lysate was measured by Bio-Rad protein assay and used to normalize bound radioactivity values expressed in dpm. Results were plotted as measured dpm versus concentration of tested compound. […] All the experiments were performed in quadruplicates and in at least three independent experiments.
(§2) For ligand binding assays, dose-response curves were also fitted using GraphPad Prism.

zfGR [3] = target: T2, zfGR (Danio rerio, UniProt Q1XHK0); assay: Whole-cell ligand competition assay with [3H]-dexamethasone, UMLN-zfGR cells; assay type: binding, zebrafish
Experimental: as §1, §2

zfGR [4] = target: T2, zfGR; assay: Antagonistic activity assessment in presence of 3 nM dexamethasone, UMLN-zfGR cells; assay type: cell-based, zebrafish

CC(=O)S[C@@H]1CC2=CC(=O)CC[C@]2(C)[C@H]2CC[C@@]3(C)[C@@H](CC[C@@]34CCC(=O)O4)[C@H]12 [spironolactone] gave an IC50 (hGR [1]) of 5300 nM.

With CSCC(=O)C1C(C)CC2C3CCC4=CC(=O)C=CC4(C)C3(F)C(O)CC21C (centres unmarked) [RU24782] the IC50 (hGR [2]) was 44.3 nM.

Work on C[C@]12CCC(=O)C=C1CC[C@@H]1[C@@H]2[C@@H](O)C[C@@]2(C)[C@H]1CC[C@]2(O)C(=O)CO [cortisol] yielded an IC50 (zfGR [3]) of 14.7 nM.

With C[C@]12CCC(=O)C=C1[C@@H]1C[C@@H]1[C@H]1[C@@H]3[C@@H]4C[C@@H]4[C@@]4(CCC(=O)O4)[C@@]3(C)CC[C@@H]12 [drospirenone] the “% min act (minimal activity)” value (zfGR [4]; UMLN-zfGR, with 3 nM dexamethasone, % of maximal luciferase activity induced by 100 nM dexamethasone, at 10^-5M) was 12 ± 4% and the IC50 (zfGR [4]; read-out: IC50) was 1510 nM.
